Experimental data reported in article PMC7819943, “Rice protein-binding microarrays: a tool to detect cis-acting elements near promoter regions in rice”.
Some of the results follow.

biological target: T1, OsWOX13 (Oryza sativa, UniProt Q5QMM3 1-267); assay: protein-binding microarray (RPBM); PBS, 2% BSA, 51.3 ng/ul salmon testes DNA, 50 uM zinc acetate, 200 nM TF, 25 C, 1 h; high values mean tight binding; settings: protein: recombinant; tags: N-terminal polyhistidine and DsRed monomer fusion (pET32a); label: CyDye5-dUTP incorporated in the synthesized complementary strand; 3' TTTTT single-stranded linker to array surface; dsDNA, one strand shown
T1 sequence: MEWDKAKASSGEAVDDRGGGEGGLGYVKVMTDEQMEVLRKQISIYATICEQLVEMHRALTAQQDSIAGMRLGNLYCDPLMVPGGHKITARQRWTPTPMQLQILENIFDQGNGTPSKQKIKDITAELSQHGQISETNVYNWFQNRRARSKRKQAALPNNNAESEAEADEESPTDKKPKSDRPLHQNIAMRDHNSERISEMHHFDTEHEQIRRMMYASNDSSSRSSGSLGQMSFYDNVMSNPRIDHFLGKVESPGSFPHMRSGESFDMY
How it was run: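 The binding signal for each feature is its fluorescence intensity in arbitrary units. An Axon 4000B scanner was used to read a custom Agilent array that had been made double-stranded with Cy5-dUTP primer extension, blocked with 2% BSA, incubated at 25 °C for 1 h with 200 nM protein in PBS, 2% BSA, salmon testes DNA and 50 µM zinc acetate, and washed. The protein was an N-terminal polyhistidine–DsRed transcription factor fusion from E. coli BL21-CodonPlus, purified on Ni–NTA.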

| Sequence | binding signal |
| --- | --- |
| CTTCATACAAGATTGGTACTTCTAAGAAACTCTATATTTGCGGAGTCACCTAGTGCAG | 4480 fluorescence intensity (a.u.) |
| AGCAATCCTAGCAAATTAGCAATAGCGATACCGATAGCTCCGGAGTCACCTAGTGCAG | 3400 fluorescence intensity (a.u.) |
| TATAATACTTAATTAATCATGCGCTAATAAATCATCTTGTCGGAGTCACCTAGTGCAG | 19300 fluorescence intensity (a.u.) |
| AACGTTCAGTGATTGAGCAGTAACTTAAAAGACAATGAACCGGAGTCACCTAGTGCAG | 9390 fluorescence intensity (a.u.) |
| ATCTATCCAATCAAGAAAACTCTGTATATGTAGTTCGGCTCGGAGTCACCTAGTGCAG | 16900 fluorescence intensity (a.u.) |
| AATCAATTCCCCACCTGTCGTCATTTATCCATCATCACATCGGAGTCACCTAGTGCAG | 3930 fluorescence intensity (a.u.) |
| GGATGGGATTATGATTGAGAAATAAATGAAAGATTAAGATCGGAGTCACCTAGTGCAG | 31900 fluorescence intensity (a.u.) |
| CATTGATGTATAGACTGTTGGTCATGTATGTACCTCCTGACGGAGTCACCTAGTGCAG | 14100 fluorescence intensity (a.u.) |
| CCCAGCTGATTTCCCGTTTAGTCGTACACCGGTCGAACAACGGAGTCACCTAGTGCAG | 6020 fluorescence intensity (a.u.) |
| AGTATAAACTTTTCCTAAATTTTATCTCCTGTTTCGGTATCGGAGTCACCTAGTGCAG | 3240 fluorescence intensity (a.u.) |
| GAAAGTTAATTACAATGACTGAAGGTGTGTACTCACTTGGCGGAGTCACCTAGTGCAG | 41400 fluorescence intensity (a.u.) |
| AGATCTAACTCATAAAATTAAATTTAATAGTTTAAGCCCTCGGAGTCACCTAGTGCAG | 4270 fluorescence intensity (a.u.) |
| ATCTTAATTTACCTTTCACTGCATCTAATATGTCACTTTGCGGAGTCACCTAGTGCAG | 20700 fluorescence intensity (a.u.) |
| TAGCAATTAATAATAAACAACTACAAACTTGCACACACTGCGGAGTCACCTAGTGCAG | 9390 fluorescence intensity (a.u.) |
| GACAATAATTAATTTCCAACACCAAAGCCGCTTCTTCCCTCGGAGTCACCTAGTGCAG | 23000 fluorescence intensity (a.u.) |
| GTAAAGACTGATGGAAAGAGAGCTAGCTAGTAGTAAATCACGGAGTCACCTAGTGCAG | 3290 fluorescence intensity (a.u.) |
| CTAATGGATTGAGGCTGGAGACATGCTCTCTTTTGTCACACGGAGTCACCTAGTGCAG | 14500 fluorescence intensity (a.u.) |
| TCTACAATAATATATGCATGATTTATATACCACTGCTGTTCGGAGTCACCTAGTGCAG | 7600 fluorescence intensity (a.u.) |
| CAGAAAATTTTGGTTTAACAGCACAAATTAGTATAGTTATCGGAGTCACCTAGTGCAG | 19100 fluorescence intensity (a.u.) |
| CAATAAATATAATTTATTTCAATTCATAACATCCATGACGCGGAGTCACCTAGTGCAG | 20800 fluorescence intensity (a.u.) |
| GTGGTTAACTAATTGTAAATTGTGATGAGATTTCTCATCACGGAGTCACCTAGTGCAG | 22700 fluorescence intensity (a.u.) |

| Sequence | binding signal |
| --- | --- |
| GTATTTAATTAATTTGCTTATACTTCAATGTCACACATAACGGAGTCACCTAGTGCAG | 38600 fluorescence intensity (a.u.) |
| AGTTAATTAGCACCCCTGTGGCTACCATCGATCTGTCTAACGGAGTCACCTAGTGCAG | 26400 fluorescence intensity (a.u.) |
| ATATACTATTTAAATTTAAATTATCATAAACCATATCAACCGGAGTCACCTAGTGCAG | 16100 fluorescence intensity (a.u.) |
| CTTAATTTTAGTCTCTGTATTTAGACACTAATTTGGAGTACGGAGTCACCTAGTGCAG | 38200 fluorescence intensity (a.u.) |
| ACAAATGCACGGTCATTAAGTTAATTAGCCAGTATCATTACGGAGTCACCTAGTGCAG | 8230 fluorescence intensity (a.u.) |
| AGGAATAAGTTGTGATTGGCAGGGTTTACATTACTTTTCGCGGAGTCACCTAGTGCAG | 28400 fluorescence intensity (a.u.) |
| AACACATCAATCAAATCCTTTGTTAGATTTGATGCGAGCGCGGAGTCACCTAGTGCAG | 27200 fluorescence intensity (a.u.) |
| GCGGCAGCGCTAGGGTGATTGACTACGCCCTCCTCCTTGACGGAGTCACCTAGTGCAG | 7690 fluorescence intensity (a.u.) |
| GGTAATCAATAAAGGAATCGATTGAAATCTGTGTGGTTGACGGAGTCACCTAGTGCAG | 18600 fluorescence intensity (a.u.) |
| TCACTGATTACAGGCACTCCTCTCCGATCCAACATAATTACGGAGTCACCTAGTGCAG | 4520 fluorescence intensity (a.u.) |
| TATATATATATATATATATATATATAGTAGCAGTAGCAGTCGGAGTCACCTAGTGCAG | 15300 fluorescence intensity (a.u.) |
| ACCAATAACTGTTATAGATACTGGAGTAGTATATTCTGATCGGAGTCACCTAGTGCAG | 4770 fluorescence intensity (a.u.) |
| CACACGCTAATTTGCCTATTTAACTGAAACCATTCTTCTCCGGAGTCACCTAGTGCAG | 28700 fluorescence intensity (a.u.) |
| AATAATTGCTCTTGTGCTAAGAAAATTCCAACTTATACTCCGGAGTCACCTAGTGCAG | 20400 fluorescence intensity (a.u.) |
| GAAATAAATCACTGGATCAAGACACAATTCTTCATGGTCTCGGAGTCACCTAGTGCAG | 5100 fluorescence intensity (a.u.) |
| CATGTAATTGGAACACCCAGTGGCCCGGGATGGAACGGAGCGGAGTCACCTAGTGCAG | 23500 fluorescence intensity (a.u.) |
| TATATATATATATATATATATATATAATTCTAATGTCATACGGAGTCACCTAGTGCAG | 25300 fluorescence intensity (a.u.) |
| CAAAACGAAATTGATAGATCTTAATGAGTTGTACAACTTTCGGAGTCACCTAGTGCAG | 20400 fluorescence intensity (a.u.) |
| TCTTGATAGAAAGAACTTTCTTTGGTTAGGACACTGCGTTCGGAGTCACCTAGTGCAG | 27500 fluorescence intensity (a.u.) |
| GGCTATCAACTAATTAAACCTTCCCTCCGGCGTCAACATCCGGAGTCACCTAGTGCAG | 4740 fluorescence intensity (a.u.) |
| CAAAAGCGTGACTCGTAGATTGACGCTATTACAGTTTAAGCGGAGTCACCTAGTGCAG | 7830 fluorescence intensity (a.u.) |
